Data as given in PubChem BioAssay AID624418 (National Center for Advancing Translational Sciences (NCATS), 2012).
The campaign covered roughly 410,000 compounds. About 530 (0.13%) were called active. The shares of active, inactive and inconclusive entries below differ from those in the screen. The call rests on the fitted dose curve; in most records, active means well fitted inhibition curve with a large enough effect; inconclusive means small, poorly fitted or top-dose-only effect, or another doubt; inactive means no such curve, though single readings can be large or run the other way. Potencies of inconclusive entries are doubtful fits and often do not repeat.

Test: qHTS of GLP-1 Receptor Inverse Agonists: Cytotox Screen
Settings: HEK293 cAMP-luciferase reporter cells, luminescence, 24 h; activity change, negative = inhibition: at 38.3 µM (top of the series) unless noted
Method in brief: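 A 23 nL compound transfer followed 12 hours of cell culture at 37 deg C; exposure then lasted 24 hr. Luciferase assay detection reagent was dispensed and plates read for luminescence after a 12 min room-temperature wait.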
On the % scale 0 is the no-effect control and ±100 the full control effect; potency means the concentration at half of the fitted maximal effect.

Row | SMILES | Potency | activity change, negative = inhibition
1 | CC(=O)c1c(C)n(-c2ccc(N(C)C)cc2)c2ccc(OCC(N)=O)cc12 | inconclusive: 28.2 µM [inhibitor, single point] | –
2 | O=C(c1ccccc1F)N(Cc1nc2ccccc2c(=O)[nH]1)C1CCCC1 | inconclusive: 14.1 µM [inhibitor, single point] | –
3 | Cc1ccc2c(Cl)c(C)c(N3CCCCC3)nc2n1 | inconclusive: 22.4 µM [inhibitor, single point] | –
4 | O=C(/C=C/c1ccco1)NC(=S)Nc1cccc(-c2nc3ccccc3s2)c1 | inconclusive: 11.2 µM [inhibitor, partial curve, poor fit] | –
5 | COc1cccc(C(=O)NC(=S)Nc2ccccc2N2CCCC2)c1 | inconclusive: 10 µM [inhibitor, single point] | –
6 | Cc1ccc(C)c(N2CCN(Cc3csc(C)c3)CC2)c1 | – | inactive: -3.1%
7 | Cc1[nH]n2c(=O)cc(C(C)(C)C)nc2c1-c1ccccc1 | inconclusive: 28.2 µM [inhibitor, single point] | –
8 | O=C(CCCN1C(=O)/C(=C\c2cccs2)SC1=S)NNC(=O)c1ccncc1 | inconclusive: 28.2 µM [inhibitor, single point] | –
9 | CCN(CC)c1nc(OCCNC(=O)Nc2ccccc2)nc(N(CC)CC)n1 | inconclusive: 10 µM [inhibitor, partial curve, poor fit] | –
10 | Clc1cccc(Cl)c1Cn1cnc2c(NCc3ccco3)ncnc21 | inconclusive: 1 µM [inhibitor, full curve] | –
11 | CC(=O)c1ccc(-c2nnc(CCC(=O)N(C)Cc3cccc4cnccc34)o2)s1 | – | inactive: 3.68%
12 | C=CCNC(=S)Nc1nc2c(cc1C(=O)OCC)CCCC2 | inconclusive: 4.47 µM [inhibitor, partial curve] | –
13 | CCC(C)c1ccc(C(C)NC(=S)NC2CCCCC2)cc1 (configuration not stated) | inconclusive: 3.55 µM [inhibitor, single point] | –
14 | ClCc1csc(-c2ccccc2Cl)n1 | inconclusive: 2.82 µM [inhibitor, partial curve, poor fit] | –
15 | COc1cc(C2NC(=S)NC3=C2CCc2ccccc23)cc(OC)c1OC (configuration not stated) | inconclusive: 28.2 µM [inhibitor, single point] | –
16 | COc1cc(OC)cc(C(=O)Nc2nc(CC(=O)NCc3ccc(F)cc3)cs2)c1 | inconclusive: 11.2 µM [inhibitor, single point] | –
17 | O=C(Cc1c(Cl)cccc1Cl)Nc1ccncc1Cl | inconclusive: 28.2 µM [inhibitor, partial curve, poor fit] | –
18 | Cc1ccccc1NC(=O)c1cc(-c2ccco2)nc2ccccc12 | inconclusive: 28.2 µM [inhibitor, single point] | –
19 | COc1ccc(CNC(=O)CCc2nc(-c3ccc(C)cc3)no2)c(OC)c1 | – | inactive: -3.17%
20 | CCN(C(=O)COC(=O)CCc1ccccc1)c1ccccc1 | inconclusive: 0.501 µM [inhibitor, full curve, poor fit] | –
21 | N#C/C(=C/c1ccc(N2CCOCC2)o1)c1ccc(Cl)cc1 | – | inactive: 41.6%

Row | SMILES | Potency | activity change, negative = inhibition
22 | COc1ccc(-c2csc(N3CCN(c4cc(C)nc5ccccc45)CC3)n2)cc1OC | inconclusive: 10 µM [inhibitor, partial curve, poor fit] | –
23 | Cn1c(NC(=O)c2ccccc2NC(=O)C(C)(C)C)nc2ccccc21 | inconclusive: 20 µM [inhibitor, single point] | –
24 | COc1cc(OC)c(OC)cc1CN1CCCC(C(=O)c2ccc3c(c2)OCO3)C1 (configuration not stated) | – | inactive: -20.3%
25 | Cc1cccnc1NC(=S)Nc1ccc(F)cc1F | inconclusive: 12.6 µM [inhibitor, single point] | –
26 | CCCC(O)(c1ccc(Br)cc1)C(CN1CCOCC1)c1ccc(Cl)cc1 (configuration not stated) | inconclusive: 10 µM [inhibitor, partial curve, poor fit] | –
27 | O=C(c1ccc(OC2CCN(C/C=C/c3ccccc3)CC2)cc1)N1CCCCC1 | inconclusive: 28.2 µM [inhibitor, single point] | –
28 | CC(=O)Oc1ccc(N(C(C)=O)S(=O)(=O)c2ccc(C)c([N+](=O)[O-])c2)cc1 | inconclusive: 12.6 µM [inhibitor, single point] | –
29 | Oc1ccc(N=Cc2ccc(OCc3ccccc3)cc2)cc1 | inconclusive: 8.91 µM [inhibitor, partial curve, poor fit] | –
30 | O=C(N/N=C/c1c[nH]c2ccccc12)c1ccccc1 | – | inactive: -5.34%
31 | c1ccc2c3c(cc(N4CCOCC4)c2c1)OC1(N2CCOCC2)CCCCC1O3 (configuration not stated) | – | inconclusive: -37.6% [inhibitor]
32 | Cc1cccc(C2(c3cccc(C)c3)CC2C(=O)Nc2ccc([N+](=O)[O-])cc2O)c1 (configuration not stated) | inconclusive: 11.2 µM [inhibitor, partial curve] | –
33 | O=C(NCCN1CCN(c2ccccc2)CC1)C1CCN(S(=O)(=O)c2cccc3nonc23)CC1 | – | inactive: 12.1%
34 | CCOC(=O)c1c(S(=O)(=O)NCC2CCN(CCc3cccs3)CC2)c(C)n(C)c1C | inconclusive: 10 µM [inhibitor, single point] | –
35 | CCN(CC)C(=O)c1cccc(-c2csc(C(C)(O)c3ccc(OC)cc3)n2)c1 (configuration not stated) | inconclusive: 12.6 µM [inhibitor, partial curve, poor fit] | –
36 | COc1ccccc1-c1cc(C(F)(F)F)nc(N2CCCC2)n1 | – | inactive: 17%
37 | O=C(c1cc2cc([N+](=O)[O-])ccc2oc1=O)n1cccn1 | inconclusive: 3.55 µM [inhibitor, partial curve, poor fit] | –
38 | C=CCn1c(SCCOc2ccc(OC)cc2)nnc1C(C)NC(=O)c1ccc(OC)cc1 (configuration not stated) | inconclusive: 10 µM [inhibitor, single point] | –
39 | CC(NC(=O)c1ccccc1O)c1ccccc1 (configuration not stated) | – | inactive: 10.8%
40 | CSCC[C@H](NC(=O)c1ccc(Cl)c([N+](=O)[O-])c1)c1nc2ccccc2[nH]1 | inconclusive: 28.2 µM [inhibitor, single point] | –
41 | CC[N+]1(C)CCC(O)(/C=C/c2ccccc2)C(C(=O)/C=C/c2ccccc2)C1 (configuration not stated) | inconclusive: 7.08 µM [inhibitor, partial curve] | –
42 | Cc1nn(C)c(C)c1CNC(=O)Nc1cccc(Cl)c1 | – | inactive: 0.981%
